Results taken from PubChem BioAssay AID1030 (National Center for Advancing Translational Sciences (NCATS), 2008).
In all, about 220,000 compounds went through this assay and about 16,000 (7.3%) were called active. Inconclusive means that the source gave no clear call. Such entries were picked first, then a sample of the others. Calls follow the shape of the dose curve; as a rule, active = well fitted inhibition curve with a large enough effect (not every such curve was filed as active); inconclusive = small, poorly fitted or top-dose-only effect, or another doubt; inactive = no such curve, though single readings can be large or run the other way. No potency is given beside an inconclusive call; the fits are too rough.

Target: Aldehyde dehydrogenase 1A1 (Homo sapiens) (UniProt P00352)
UniProt P00352, sequence (P00352 whole entry, looked up): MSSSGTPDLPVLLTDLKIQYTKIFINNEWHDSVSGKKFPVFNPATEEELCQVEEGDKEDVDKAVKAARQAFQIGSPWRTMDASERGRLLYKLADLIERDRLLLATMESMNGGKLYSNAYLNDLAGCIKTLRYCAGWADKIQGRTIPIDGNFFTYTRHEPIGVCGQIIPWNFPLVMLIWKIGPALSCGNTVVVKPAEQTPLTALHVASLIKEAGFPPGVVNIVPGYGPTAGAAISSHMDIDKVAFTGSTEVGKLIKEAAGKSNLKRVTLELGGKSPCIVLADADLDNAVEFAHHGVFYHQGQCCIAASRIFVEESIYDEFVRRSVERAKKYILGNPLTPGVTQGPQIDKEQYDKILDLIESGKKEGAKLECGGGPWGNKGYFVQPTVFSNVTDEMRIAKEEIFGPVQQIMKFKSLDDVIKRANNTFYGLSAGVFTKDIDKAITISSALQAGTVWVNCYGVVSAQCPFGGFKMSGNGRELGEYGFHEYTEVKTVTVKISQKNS
Experiment: qHTS Assay for Inhibitors of Aldehyde Dehydrogenase 1 (ALDH1A1);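 as to activity, negative = inhibition: plate controls were no enzyme wells and a reference inhibitor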
Details: Purified ALDH1A1, NADH fluorescence, propionaldehyde substrate; series mostly up to 75.3 µM; activity, negative = inhibition: at the top concentration
Potency is read from the fitted curve at half-maximal effect; tags tell the direction and shape of the fitted curve.

Row | Structure (SMILES) | Potency | activity, negative = inhibition
1 | C=CCc1cc(C)ccc1OCCOCCn1ccnc1 | active: 25.1 µM | 
2 | COc1ccc(-c2nc3c(c(=O)[nH]c(=O)n3Cc3ccccc3)n2Cc2ccccc2)cc1 | inconclusive [inhibitor, partial curve] | 
3 | COc1cccc(C2(c3cccc(OC)c3)CC2C(=O)Nc2ccc(F)cc2)c1 (stereo not given) |  | inactive: -9.44%
4 | CCSc1nnc(NC(=O)Cc2ccccc2OC)s1 |  | inactive: -5.35%
5 | COc1cccc([C@@H]2Oc3ccc(OC)cc3C[C@H]2OC(=O)NS(=O)(=O)c2ccc(C)cc2)c1 |  | inactive: 4.33%
6 | N#Cc1cccc(NC(=O)c2nc(-c3ccccc3)n(-c3ccccc3)n2)c1 | inconclusive [inhibitor, single point] | 
7 | CC1(C)CC(=O)c2cc(OCC(=O)N3CCN(c4ccccc4F)CC3)ccc2O1 | inconclusive [inhibitor, partial curve] | 
8 | CCCN(Cc1cc2cccc(C)c2[nH]c1=O)S(C)(=O)=O |  | inactive: 12%
9 | NC(N)=NS(=O)(=O)c1ccc(NC(=S)NC(=O)c2ccc3c(c2)OCO3)cc1 | active: 25.1 µM | 
10 | COc1cccc(/C=N/NC(=O)c2ccc(=O)n(C)c2)c1OC | inconclusive [inhibitor, single point] | 
11 | CC(C)(C)c1csc(NC(=O)c2ccc3nccnc3c2)n1 | inconclusive [inhibitor, single point] | 
12 | Cc1ccc(CSc2ncn(-c3ccccc3)n2)cc1 | active: 15.8 µM | 
13 | Cc1ccc(CS(=O)(=O)CCC(=O)NCC2CCCO2)cc1 (stereo not given) | inconclusive [inhibitor, single point] | 
14 | O=C(C(NS(=O)(=O)c1cccc2nsnc12)c1ccccc1)N1CCN(c2ccccc2)CC1 (stereo not given) | inconclusive [inhibitor, single point] | 
15 | CCOC(=O)c1ccccc1NC(=S)N1CCCCC1 | inconclusive [inhibitor, single point] | 
16 | CN(C)Cc1ccccc1 | inconclusive [inhibitor, single point] | 
17 | Cc1ccc(Cl)cc1NC(=S)NCCCSC1CCCCC1 | inconclusive [inhibitor, partial curve] | 
18 | O=C(NCc1cn(-c2ccccc2)nc1-c1ccccc1)c1cccc([N+](=O)[O-])c1 | inconclusive [inhibitor, single point] | 
19 | COc1cc(NC(=O)C2CCC(CNc3c(N4CCC(C)CC4)c(=O)c3=O)CC2)cc(OC)c1 (stereo not given) |  | inactive: 13.6%
20 | CC1CCN(Cc2csc(N)n2)CC1 |  | inactive: 9.11%
21 | O=C(CNC(=O)c1ccccc1Cl)OC1CCOC1=O (stereo not given) | inconclusive [inhibitor, single point] | 
22 | O=C(NC(=S)N(CC1CCC1)CC1CCCO1)c1cccc([N+](=O)[O-])c1 (stereo not given) | inconclusive [inhibitor, single point] | 
23 | Cc1ccc2cc(CCNC(=O)c3ccco3)c(=O)[nH]c2c1C | inconclusive [inhibitor, partial curve] | 
24 | Cc1cc(C)c2c(NC(=S)Nc3ccccc3)n[nH]c2n1 | inconclusive [inhibitor, single point] | 
25 | CCOC(=O)c1sc2nc3n(c(=O)c2c1C)CCC3 |  | inactive: -10.6%

Row | Structure (SMILES) | Potency | activity, negative = inhibition
26 | CC1=C2[C@@H](O)[C@H]([C@@H](C)C(=O)NCCC(C)C)CC[C@@]2(C)C=CC1=O |  | inactive: 3.98%
27 | CCOC(=O)NC(N(O)c1cccc(Cl)c1)C(Cl)(Cl)Cl (stereo not given) | active: 8.91 µM | 
28 | O=C(Cn1ccc([N+](=O)[O-])n1)NCc1nc2ccccc2[nH]1 |  | inactive: -1.08%
29 | CC(C)(C)CC(C)(C)NCC(=O)Nc1c2c(nc3ccccc13)CCC2 | active: 9.46 µM | 
30 | COc1ccc(CCNC(=O)c2cc(-c3ccc(C)c(C)c3O)n[nH]2)cc1OC | inconclusive [inhibitor, single point] | 
31 | CSC1=NC(C(Cl)(Cl)Cl)N=C(c2ccc(C)cc2)N1 (stereo not given) | inconclusive [inhibitor, single point] | 
32 | Cc1oc2cc(O)ccc2c(=O)c1N1C(=O)c2ccccc2C1=O |  | inactive: 1.17%
33 | Cc1onc(-c2ccccc2)c1-c1n[nH]c(=S)n1-c1ccccc1Cl |  | inactive: -3.66%
34 | O=C(CCc1nc2ccccc2c(=O)[nH]1)Nc1ccc(F)cc1 |  | inactive: 9.65%
35 | O=C(O)C1OC(Oc2cc3oc(-c4ccccc4)cc(=O)c3c(O)c2O)C(O)C(O)C1O (stereo not given) | inconclusive [inhibitor, single point] | 
36 | CSc1ccccc1C(=O)N1CCCCC1 |  | inactive: 15.2%
37 | Cc1cccc(CN(C(=S)Nc2c(C)cccc2C)c2cccnc2)c1 | inconclusive [inhibitor, single point] | 
38 | CC1CCC(C(=O)O)([C@H](Br)C(=O)O)CC1 (stereo not given in full) |  | inactive: 3.66% [at 13.5 µM]
39 | CCC(C)[C@@H](C(=O)Nc1ccc2c(c1)OCO2)N1Cc2ccccc2C1=O (stereo not given in full) | inconclusive [inhibitor, single point] | 
40 | Cc1cc[n+](-c2[nH]c(=O)sc2/C=N/N=C(\[O-])c2ccccc2)cc1C | active: 22.4 µM | 
41 | O=C(O)c1cc(O)c2c(c1)C(=O)c1cc(O)cc(O)c1C2=O | active: 25.1 µM | 
42 | Nc1nnc(SCc2ccccc2Cl)s1 |  | inactive: 0.0273%
43 | COc1cc2nc(=S)n3[nH]c(COc4ccccc4C)nc3c2cc1OC | inconclusive [inhibitor, full curve] | 
44 | Cc1ccccc1-n1c(-c2csc3ccccc23)n[nH]c1=S | active: 22.4 µM | 
45 | CCCNC(=O)c1nnsc1S(=O)(=O)c1ccc(Cl)cc1 | active: 20 µM | 
46 | Cn1c(SCc2cccc([N+](=O)[O-])c2)nc2c(c1=O)SCC2 | inconclusive [inhibitor, single point] | 
47 | O=C(CN1CCc2ccccc21)NC(=O)NCc1ccco1 | inconclusive [inhibitor, single point] | 
48 | O=[N+]([O-])c1c(NCCCO)cc(Sc2ccc(Cl)cc2)c2nonc12 | active: 4.47 µM | 
49 | Oc1sc(C=Nc2ccc(F)cc2)c2ccccc12 | inconclusive [inhibitor, single point] | 
50 | Cc1c(C(=O)NCCn2ccc3ccccc32)cccc1[N+](=O)[O-] | inconclusive [inhibitor, partial curve] | 
